# According to PubChem BioAssay AID493208 (National Center for Advancing Translational Sciences (NCATS), 2011):
# The campaign covered roughly 44,000 compounds. About 340 (0.77%) were called active. Roughly 5% stayed inconclusive and do not appear here. Calls come from the whole dose curve; as a rule, active = well fitted inhibition curve with a large enough effect; inconclusive = small, poorly fitted or top-dose-only effect; inactive = flat fitted curve, though single readings scatter. The list shows a part of the results.
# Assay: Acumen qHTS Assay for Inhibitors of the mTORC1 Signaling Pathway in MEF (Tsc2-/-, p53-/-) Cells: Sytravon; note: nearly all actives have a fitted effect of over 50% in size;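 for activity change, negative = inhibition: plate controls were DMSO for no effect and rapamycin for full effect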
# Conditions: phospho-rpS6 immunofluorescence/PI, 24 h; series mostly up to 38.3 µM; activity change, negative = inhibition: at the top concentration
# How it was run: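 Read-out: phospho-S6 Alexa-488 intensity over PI intensity per well, scored as % active cells using thresholds from rapamycin (7.5 nM) and DMSO controls. Tsc2-/-, p53-/- MEFs exposed to compound for 24 h; PI cell count recorded as viability.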
# Potency is the fitted concentration of half-maximal effect.
Structure (SMILES),"activity change, negative = inhibition",Potency
Cn1c(=O)c2c(nc(NCCc3ccccc3)n2Cc2ccc(Cl)cc2)n(C)c1=O,inactive: -19.6%,–
CCOC(=O)c1cc(S(=O)(=O)NCc2cccc(Cl)c2)[nH]n1,inactive: -3.72%,–
CCOC(=O)c1cnc2cc(F)c(F)cc2c1Nc1ccccc1O,inactive: 5.66%,–
CC(C)(C)OC(=O)N1CCC(c2c(C(=O)N3CCCCC3)cnn2-c2cccc(F)c2)CC1,inactive: 0.97%,–
CC(=O)c1ccc(N2CCN(C(=O)CCc3nnc4n(C)c(=O)c5sccc5n34)CC2)cc1,inactive: -1.73%,–
COc1cc(OC)c(NC(=O)c2noc3c2CSc2ccccc2-3)cc1Cl,inactive: 2.71%,–
CCCCn1c(SCC(=O)Nc2ccc(OCC)cc2)nc2ccsc2c1=O,inactive: -3.03%,–
Cc1ccc(CNC(=O)CSc2ncc3c(n2)-c2ccc(Cl)cc2N(Cc2ccccc2)S3(=O)=O)cc1,inactive: 2.11%,–
Cc1ccc(NS(=O)(=O)c2cc3[nH]c(=O)c(=O)[nH]c3cc2C)cc1N(C)C,inactive: -8.33%,–
CCc1ccccc1NC(=O)[C@@H](c1ccccc1)N1Cc2ccccc2C1=O,inactive: -2.44%,–
Cc1ccc(NC(=O)CCCn2c(=O)c3cccn3c3cccnc32)cc1C,inactive: -28%,–
Cc1ccc(C)c(NC(=O)CSc2nnc(-c3cc4occc4n3C)n2-c2ccccc2C)c1,inactive: -0.506%,–
CC(C)CC(=O)Nc1ccccc1OCc1cc(=O)n2ccccc2n1,inactive: -11.8%,–
CC(=O)N1CCc2c(sc3c2c(=O)n(-c2cc(Cl)ccc2C)c(=O)n3Cc2ccccc2F)C1,inactive: 0.201%,–
CC1(C)CC(=O)c2c(oc3c(Cl)cc(NS(=O)(=O)c4ccc(Br)cc4)cc23)C1,inactive: -15%,–
COc1ccc(C(=O)COC(=O)CCCC(=O)Nc2cc(C(F)(F)F)ccc2Cl)cc1,inactive: 0.694%,–
COC(=O)c1cc(Cl)ccc1NC(=O)CSc1ncc(S(=O)(=O)c2ccc(Br)cc2)c(=O)[nH]1,inactive: 4.41%,–
O=C(Nc1ccc(Br)cc1F)N1CCC(CN2CCc3ccccc3C2)CC1,inactive: -0.162%,–
COc1ccc(OCC(=O)OCc2cc(=O)n3nc(C4CC4)sc3n2)cc1,inactive: -0.989%,–
Cc1ccc(Nc2c(-c3ccc(C)s3)nc3ncccn23)cc1,inactive: -2.14%,–
CCOC(=O)c1c(NC(=O)/C=C/c2ccc(C)cc2)sc2c1CCCC2,inactive: 2.63%,–
CCCCOC(=O)c1ccc(NC(=O)c2cc(-c3cccs3)on2)cc1,inactive: -10.2%,–
Cc1ccc(CNC(=O)CCCc2nnc3n(C)c(=O)c4sccc4n23)cc1,inactive: 3.29%,–
O=C(NCCc1ccc(Cl)cc1)c1cc(-c2ccc(Cl)cc2)n[nH]1,inactive: 1.88%,–

Structure (SMILES),"activity change, negative = inhibition",Potency
COc1ccccc1CNC(=O)c1ccc(-c2nc(CS(=O)(=O)c3ccc(C)cc3)c(C)o2)cc1,inactive: -6.34%,–
CCC(C)NC(=O)c1ccc2nc(CCc3ccccc3)oc2c1 (stereo not drawn),inactive: -3.52%,–
Cc1ccc(NC(=O)C(=O)NCC(c2ccc3c(c2)OCO3)N2CCOCC2)cc1C (stereo not drawn),inactive: -5.63%,–
CCOc1ccc(NC(=O)CCCc2nnc3n(C)c(=O)c4sccc4n23)cc1,inactive: -2.36%,–
CC1=C(C(=O)Nc2ccccc2)C(c2cccc(Cl)c2)n2nc(SCC(=O)c3ccc(C)cc3)nc2N1 (stereo not drawn),inactive: -8.8%,–
O=C(CSc1nc(-c2ccccc2)nc2c1Cc1ccccc1O2)N1CCCCC1,inactive: -16.4%,–
O=c1[nH]c2ccc(NCc3ccc(-c4ccccc4)o3)cc2[nH]1,inactive: -12.2%,–
Cc1cccc(OCC(=O)Nc2ccccc2C(=O)OCc2cc(=O)n3nc(C)sc3n2)c1,inactive: 12.4%,–
O=C(Nc1ccc2oc(-c3ccc4ccccc4c3)nc2c1)c1ccc(Cl)c(Cl)c1,inactive: -10.6%,–
CCOc1ccccc1Nc1sc(C(=O)c2ccccc2)c(N)c1S(=O)(=O)c1ccc(C)cc1,inactive: 4.78%,–
Cc1ccc(CCNC(=O)c2cc3c(-c4ccccc4F)nn(C)c3s2)cc1,inactive: -0.656%,–
CCOc1ccc(-c2oc3ccc(C)cc3c(=O)c2O)cc1,inactive: 7.59%,–
Fc1ccc(Nc2ncnc3c2nc2n3CCCCC2)c(F)c1,inactive: 0.77%,–
COCCCNC(=O)c1ccc2c(c1)nc(C)n2-c1cccc(C)c1,inactive: -12.5%,–
O=C(Nc1ccc(C(=O)OCc2cc(=O)n3nc(C4CC4)sc3n2)cc1)c1cccc(F)c1,inactive: 1.81%,–
CCN(c1ccccc1)S(=O)(=O)c1ccc(NC(=O)c2cc(=O)c3ccccc3o2)cc1,inactive: 4.54%,–
O=C(Nc1ccc(F)cc1)C1CCN(S(=O)(=O)c2ccc3c(c2)CCCN3C(=O)C2CCC2)CC1,inactive: -4.55%,–
COc1ccc2c(CNC3CCCCCC3)c(C(=O)O)n(Cc3ccccc3F)c2c1,inactive: -2.9%,–
CCOC(=O)c1c(S(=O)(=O)N2CCC(C(=O)Nc3ncccc3C)CC2)c(C)n(C)c1C,inactive: -6.26%,–
CCOC(=O)c1cc(-c2ccc(OC)cc2)n(CCC(=O)NC2CCCCC2)c1C,inactive: -6.24%,–
Cc1c(C(=O)OC2CCCCC2)[nH]c2c1C(=O)CC(c1ccc(C(C)(C)C)cc1)C2 (stereo not drawn),inactive: -23.5%,–
CCC(=O)N1CCc2cc(Br)cc(S(=O)(=O)CCC(=O)N3CCN(c4cc(C)ccc4C)CC3)c21,inactive: -0.537%,–
CCCc1nnc(NC(=O)c2cc(=O)c3cc(C)c(C)cc3o2)s1,inactive: -4.94%,–
CCN(CC)S(=O)(=O)c1ccc2c(c1)nc(CN(C)C(=O)Nc1ccc(C)c(F)c1)n2C,inactive: 11.6%,–

Structure (SMILES),"activity change, negative = inhibition",Potency
O=C(OCC1CCCO1)c1ccc2c(c1)N(Cc1ccccc1)C(=O)c1ccccc1S2(=O)=O (stereo not drawn),inactive: 0.942%,–
CCc1ccccc1NC(=O)CN1C(=O)CCSc2ccc(S(=O)(=O)N3CCCC3)cc21,inactive: -4.06%,–
CCOC(=O)C1CCCN(C(=O)Cn2ncc3c4ccccc4n(Cc4ccccc4)c3c2=O)C1 (stereo not drawn),inactive: -6.33%,–
COC(=O)c1ccc(CSc2nc3c([nH]c4ccccc43)c(=O)n2-c2cccc(Cl)c2)o1,inactive: -2.45%,–
CCc1ccccc1NC(=O)C(C)n1c(=O)cc(C)c2c(C)nn(-c3ccccc3)c21 (stereo not drawn),inactive: 0%,–
COc1ccccc1NC(=O)c1cc2c(C)nn(-c3ccccc3)c2s1,inactive: -4.57%,–
COc1ccc(N2CCN(C(=O)COCc3cc(-c4ccc5c(c4)OCO5)on3)CC2)cc1,inactive: -8.82%,–
COc1ccc(NC(=O)c2sc3nc(C(F)(F)F)cc(C)c3c2N)cc1OC,inactive: -0.59%,–
Cc1ccc(NC(=O)c2nc(S(C)(=O)=O)ncc2N(Cc2ccco2)Cc2cccs2)cc1C,inactive: -1.81%,–
Cc1cc(C)cc(Oc2nc3ccccn3c(=O)c2/C=C(\C#N)c2nc3ccccc3s2)c1,inactive: -4.74%,–
O=C(NC1CCN(Cc2ccccc2)CC1)c1ccc(Cn2c(=O)c3ccccc3n(Cc3ccc(F)cc3)c2=O)cc1,–,active: 3.29 µM
Cn1c(=O)cc(SCC(=O)N2CCN(c3ccccc3F)CC2)c2ccc(Cl)cc21,inactive: 3%,–
Cc1ccccc1OCCSc1nc2ccc(NC(=O)c3cccs3)cc2s1,inactive: -6.15%,–
COCCCNC(=O)CSc1nc2cc3c(cc2c(=O)n1CCCC(=O)NCc1ccc2c(c1)OCO2)OCO3,inactive: 0.119%,–
CCn1nc(-c2ccccc2)c(-c2ccccc2)c(C(=O)Nc2ccc(NC(C)=O)cc2)c1=O,inactive: 6.36%,–
Cc1ccc(Cn2ccnc2SCC(=O)Nc2nnc(C)s2)cc1,inactive: -14.5%,–
COc1ccc(OC)c(NC(=O)Nc2c(C)n(C)n(-c3ccccc3)c2=O)c1,inactive: -0.662%,–
Cc1ccc(-c2csc(=Nc3ccccc3)n2Cc2ccc3c(c2)OCO3)cc1,inactive: -13.8%,–
O=C(NCCN1CCCCC1)c1ccc(Cn2c(SCc3ccccc3)nc3cccnc32)cc1,inactive: -6.22%,–
COCCCn1c(-c2ccc(S(=O)(=O)N3CCOCC3)cc2)csc1=Nc1ccccc1,inactive: -3.84%,–
CC1(c2ccc(Cl)cc2)CC(C)(C)N(C(=O)c2cccc(F)c2)c2ccccc21 (stereo not drawn),inactive: -8.11%,–
O=C(Cc1ccccc1)Nc1sc2c(c1C(=O)Nc1ccc(Br)cc1)CCCC2,inactive: -12.7%,–
Cc1ccc(C(=O)NC2(C(F)(F)F)N=C(c3ccccc3)N(Cc3ccccc3)C2=O)cc1 (stereo not drawn),inactive: 5.39%,–
Cc1ccc(C(=O)Oc2cc(-c3ccc4c(c3)OCO4)cc(=O)c3c(C)oc(C)c23)cc1,inactive: -3.21%,–

Structure (SMILES),"activity change, negative = inhibition",Potency
Cc1ccc(NC(=O)C2CCN(c3nc(-c4ccc(C(C)C)cc4)no3)CC2)c(Cl)c1,inactive: -0.192%,–
Cc1ccccc1NC(=O)CSc1nc(-c2ccco2)nc2cc(=O)[nH]n12,inactive: 3.15%,–
CC(=O)c1ccc(NS(=O)(=O)c2ccc(-n3cccn3)cc2)cc1,inactive: -2.09%,–
CCOc1ccc(CNC(=O)c2cc(-c3ccc(Cl)s3)nc3ccccc23)cc1,inactive: -15.3%,–
O=C(c1ccc2c(c1)N(Cc1ccc(Cl)cc1)C(=O)c1ccccc1S2=O)N1CCCCC1 (stereo not drawn),inactive: -2.75%,–
COc1ccccc1NC(=O)Cn1c(=O)n(CC(=O)NCc2ccccc2Cl)c(=O)c2sccc21,inactive: -1.6%,–
COc1ccc(C(=O)Oc2c(Sc3ccc(C)cc3)c(C)nn2C(C)(C)C)cc1OC,inactive: 0%,–
Cc1cccc(NC(=O)CCNS(=O)(=O)c2ccc3c(c2)CCN3C(=O)C2CC2)c1,inactive: -3.69%,–
CCOC(=O)C1CCN(C(c2ccc(C)cc2)c2c(O)cc(C)n(CCOC)c2=O)CC1 (stereo not drawn),inactive: 4.04%,–
CCOc1ccc(-c2cc(CCCC(=O)NCCc3cc(OC)c(OC)c(OC)c3)no2)cc1,inactive: 0.999%,–
Cc1ccc(NC(=O)Cn2cc(C(=O)C3CCCCC3)c3ccccc32)cc1,inactive: -0.951%,–
COc1ccc(CCNC(=O)CCCn2nc(C)c3sc4ccccc4c3c2=O)c(OC)c1,inactive: -0.286%,–
CCOc1ccc(NC(=O)Cn2c(=O)n(CCCS(=O)(=O)C3CCCCC3)c(=O)c3ccccc32)cc1,inactive: -1.34%,–
Cc1ccc(C(=O)Nc2ccccc2)cc1S(=O)(=O)Nc1ccccc1,inactive: 1.27%,–
Cc1ccc(NC(=O)C2CCC(CNS(=O)(=O)c3cccc4nsnc34)CC2)c(Cl)c1 (stereo not drawn),inactive: -5.75%,–
COc1ccc(N2CCN(C(=O)C3CCN(S(=O)(=O)c4cn(C)cn4)CC3)CC2)cc1,inactive: 0%,–
Cc1ccc(OC(=O)CSc2nnc(-c3ccc4c(c3)OCO4)o2)cc1,inactive: -0.319%,–
Cc1cccc(N(C)C(=O)Cc2c(C(=O)O)[nH]c3ccccc23)c1,inactive: 0%,–
Cc1ccc(-n2ncc3c(N4CCC(Cc5ccccc5)CC4)ncnc32)cc1C,inactive: 1.9%,–
CCOc1ccc(-c2nc(CSCC(=O)NCc3ccc(C)cc3)c(C)o2)cc1,inactive: -6.64%,–
COC(=O)c1cc(NC(=O)c2sc3ccccc3c2Cl)cc(C(=O)OC)c1,inactive: 8.63%,–
